In all, about 310,000 compounds went through this assay and about 2,200 (0.71%) showed an effect of 50% or more. The effect is printed as a negative number. The list shows a part of the results.

Sequence of human ether-à-go-go-related gene (hERG) potassium channel (Q12809 whole entry, looked up): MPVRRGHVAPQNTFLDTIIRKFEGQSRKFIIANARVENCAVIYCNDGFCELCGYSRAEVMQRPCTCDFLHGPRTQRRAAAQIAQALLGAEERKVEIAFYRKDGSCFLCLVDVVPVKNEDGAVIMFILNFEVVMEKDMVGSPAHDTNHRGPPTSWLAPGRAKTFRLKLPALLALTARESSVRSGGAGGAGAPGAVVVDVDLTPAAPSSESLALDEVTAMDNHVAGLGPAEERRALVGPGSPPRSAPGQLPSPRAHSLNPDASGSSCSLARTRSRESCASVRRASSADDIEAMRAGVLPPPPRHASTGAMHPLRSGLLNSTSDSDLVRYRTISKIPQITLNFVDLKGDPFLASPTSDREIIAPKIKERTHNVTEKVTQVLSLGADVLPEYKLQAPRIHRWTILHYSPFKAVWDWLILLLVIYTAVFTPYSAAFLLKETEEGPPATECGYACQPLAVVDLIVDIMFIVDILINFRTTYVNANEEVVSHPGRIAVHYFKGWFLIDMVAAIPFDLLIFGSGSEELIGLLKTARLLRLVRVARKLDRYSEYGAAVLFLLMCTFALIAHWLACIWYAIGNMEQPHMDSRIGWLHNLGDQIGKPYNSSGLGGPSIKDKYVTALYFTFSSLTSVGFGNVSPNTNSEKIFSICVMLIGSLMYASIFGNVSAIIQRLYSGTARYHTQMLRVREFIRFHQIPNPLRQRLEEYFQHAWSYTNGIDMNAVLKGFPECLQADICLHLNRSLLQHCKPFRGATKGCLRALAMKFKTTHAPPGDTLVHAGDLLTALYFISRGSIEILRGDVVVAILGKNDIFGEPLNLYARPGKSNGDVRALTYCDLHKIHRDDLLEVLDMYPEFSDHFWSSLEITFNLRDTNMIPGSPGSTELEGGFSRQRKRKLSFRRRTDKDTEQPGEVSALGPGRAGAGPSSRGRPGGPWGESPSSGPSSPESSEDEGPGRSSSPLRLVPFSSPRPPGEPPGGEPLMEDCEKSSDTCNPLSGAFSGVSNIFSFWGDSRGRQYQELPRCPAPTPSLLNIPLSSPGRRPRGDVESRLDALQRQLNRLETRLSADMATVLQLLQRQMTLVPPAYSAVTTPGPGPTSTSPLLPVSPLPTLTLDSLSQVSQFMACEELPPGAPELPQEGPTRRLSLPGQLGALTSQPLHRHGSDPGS

This assay concerns the target human ether-à-go-go-related gene (hERG) potassium channel (human, UniProt Q12809). Kind of assay: primary screen, population patch clamp on CHO cells stably expressing hERG.
For the molecule `CCCCOc1ccc(-c2nc(/C=N/c3nccs3)c(O)o2)cc1`, the “hERG current change (%, negative = inhibition) at 1uM” value is 15.5%.

As for `COc1ccc(S(N)(=O)=O)cc1C(=O)NCCCN1CCN(c2ccccc2OC)CC1.CS(=O)(=O)O`, the “hERG current change (%, negative = inhibition) at 1uM” value was found to be 4.07%.

As for `Cc1ccccc1OC(C)C(=O)Nc1ccc2c(c1)OCO2` (stereo not shown), the “hERG current change (%, negative = inhibition) at 1uM” value is listed as -1.56%.

On to `Cc1cccc(C2Nc3ccccc3C(=O)N2NC(=O)c2ccc([N+](=O)[O-])cc2)n1` (stereo not shown), for which the “hERG current change (%, negative = inhibition) at 1uM” value is on record as -3.86%.

Take `O=C(CCNS(=O)(=O)c1ccccc1)OCC(=O)c1ccc(Cl)cc1`: the “hERG current change (%, negative = inhibition) at 1uM” value was found to be 5.9%.

Take `NC(=O)N/N=C/c1c(F)c(F)c(F)c(F)c1F`: the “hERG current change (%, negative = inhibition) at 1uM” value came out at 13.2%.

On to `CCN1CCN(S(=O)(=O)c2ccc(Cl)c(C(=O)N(C)Cc3ccc(Cl)cc3Cl)c2)CC1`, for which the “hERG current change (%, negative = inhibition) at 1uM” value is on record as 6.11%.

As for `Cc1sc2ncnc(NCC(C)(C)N3CCOCC3)c2c1C`, the “hERG current change (%, negative = inhibition) at 1uM” value is -63.6%.

Regarding `Cc1ccn(CC(=O)N2CCCC(C(=O)c3cccc4ccccc34)C2)n1` (stereo not shown), the “hERG current change (%, negative = inhibition) at 1uM” value came to 9.74%.

As to `Cc1cc(C)cc(OCC(=O)OCC(=O)NC2CCCC2)c1`, the “hERG current change (%, negative = inhibition) at 1uM” value was 5.76%.

As for `Cc1cc(Cl)c(S(=O)(=O)N/N=C/c2ccc3c(c2)OCO3)c(Cl)c1`, the “hERG current change (%, negative = inhibition) at 1uM” value came to 6.02%.

Take `COc1ccc(C(=O)Nc2cc3c4c(c2)C(C)C(=O)N4CCC3)cc1` (stereo not shown): the “hERG current change (%, negative = inhibition) at 1uM” value was found to be 0.815%.

In the case of `COCCCNC(=O)c1ccc(CS(=O)(=O)Cc2cccc(C)c2)o1`, the “hERG current change (%, negative = inhibition) at 1uM” value was 8.08%.

As for `O=C(CSc1ncn[nH]1)Nc1ncc(C(F)(F)F)cc1Cl`, the “hERG current change (%, negative = inhibition) at 1uM” value is recorded as 14.9%.

Regarding `O=C(Nc1ccccc1O)c1cccc(NC(=O)c2ccco2)c1`, the “hERG current change (%, negative = inhibition) at 1uM” value is listed as 9.5%.

In the case of `CC(=O)Nc1ccc(C(=O)NNC(=O)c2cccs2)cc1`, the “hERG current change (%, negative = inhibition) at 1uM” value is 17.3%.

Consider `CC(=O)N1CCC(C(=O)NC2CCCc3c2cnn3-c2cc(F)cc(F)c2)CC1` (stereo not shown), for which the “hERG current change (%, negative = inhibition) at 1uM” value worked out at 5.23%.

In the case of `CSc1nnc(C(C)(C)C)c(=O)n1/N=C/c1ccc(Cl)cc1`, the “hERG current change (%, negative = inhibition) at 1uM” value is recorded as 2.61%.

Consider `O=C(c1ccco1)N1CCN(Cc2c(Cl)cccc2Cl)CC1`, for which the “hERG current change (%, negative = inhibition) at 1uM” value is on record as 7.57%.

Turning to `COc1ccc(-c2nn(-c3ccccc3)cc2/C=N/NC(=O)c2cccc(S(=O)(=O)Nc3ccccc3Cl)c2)cc1`, the “hERG current change (%, negative = inhibition) at 1uM” value is reported as -23.1%.

As for `COc1ccc(C(CNC(=O)C(CC(C)C)NS(=O)(=O)c2ccc(C)cc2)N2CCOCC2)cc1` (stereo not shown), the “hERG current change (%, negative = inhibition) at 1uM” value came to 10.2%.

For the molecule `CSCCC(C(=O)Nc1ccc2c(c1)OCO2)N1C(=O)c2ccccc2C1=O` (stereo not shown), the “hERG current change (%, negative = inhibition) at 1uM” value is on record as 4.06%.

`Cc1c(C(=O)O)oc2ccc3c(c12)C(O)CC(C)(C)O3` (stereo not shown): the “hERG current change (%, negative = inhibition) at 1uM” value stood at 12.4%.

Regarding `Cc1ccccc1N1CCN(C2CCCN(C(=O)c3cnsn3)C2)CC1` (stereo not shown), the “hERG current change (%, negative = inhibition) at 1uM” value was -36%.

Consider `COc1cccc(-c2ccc(NC(=O)C3CCCN(Cc4cnc(C)s4)C3)cc2)c1` (stereo not shown), for which the “hERG current change (%, negative = inhibition) at 1uM” value is 13.2%.

With `CCCCNC(=S)N/N=C/c1ccc(C)s1`, the “hERG current change (%, negative = inhibition) at 1uM” value came to 1.45%.

Turning to `CC12CCC(C(=O)N(CCCCN3CCN(c4ccccn4)CC3)C1=O)C2(C)C` (stereo not shown), the “hERG current change (%, negative = inhibition) at 1uM” value amounted to 9.29%.

Take `O=C(Cc1ccc(F)cc1)Nc1cccc2cccnc12`: the “hERG current change (%, negative = inhibition) at 1uM” value is on record as 11.1%.

As to `S=C(NC1CC1)N1CCc2ccccc2C1`, the “hERG current change (%, negative = inhibition) at 1uM” value is given as 4.36%.

`COCCN1CCn2c(nc3cc(NC(=O)Cn4nc(C)c5ccccc5c4=O)ccc32)C1`: the “hERG current change (%, negative = inhibition) at 1uM” value is recorded as 12.9%.

`COc1ccc(CCN2C(=O)CC(C(N)=O)SC2=Nc2ccccc2)cc1OC` (stereo not shown): the “hERG current change (%, negative = inhibition) at 1uM” value was determined as 0.0534%.

For `Cl.O=C(/C=C/c1cn(-c2ccccc2)nc1-c1ccc2c(c1)OCCO2)NCCCN1CCOCC1`, the “hERG current change (%, negative = inhibition) at 1uM” value stood at 4.34%.

For the molecule `Cc1cc(OCC(=O)N2CCC(C(=O)NCC(C)C)CC2)c2c3c(c(=O)oc2c1)CCCC3`, the “hERG current change (%, negative = inhibition) at 1uM” value was 7.79%.

Regarding `CCOC(=O)c1sc(NC(=O)/C=C/c2ccc(F)cc2)nc1C`, the “hERG current change (%, negative = inhibition) at 1uM” value is recorded as 7.41%.

On to `Cc1cc(NC(=O)CCCN2C(=O)/C(=C\c3cccs3)SC2=S)no1`, for which the “hERG current change (%, negative = inhibition) at 1uM” value is listed as 17.4%.

With `Cn1c2ccccc2c2cc(/C=N/NC(=O)c3cc(O)cc(O)c3)ccc21`, the “hERG current change (%, negative = inhibition) at 1uM” value was found to be 15%.

Consider `COc1ccc(-n2c(SCc3ccc([N+](=O)[O-])cc3)nnc2-c2ccccc2)cc1`, for which the “hERG current change (%, negative = inhibition) at 1uM” value was -6.19%.

Regarding `CC1CCC(NC(=O)CNC(=S)N2CC3CC(C2)c2cccc(=O)n2C3)CC1` (stereo not shown), the “hERG current change (%, negative = inhibition) at 1uM” value is 11.6%.

As for `O=C(NCC(=O)N(c1cccc(F)c1)C(C(=O)NC1CCCC1)c1cccnc1)c1cccs1` (stereo not shown), the “hERG current change (%, negative = inhibition) at 1uM” value was 5.16%.

In the case of `CCOC(=O)c1cc2c(=O)n3ccccc3nc2n(CCCOC)c1=NC(=O)c1cccnc1`, the “hERG current change (%, negative = inhibition) at 1uM” value is given as -18.4%.

With `CCOc1ccc(NC(=O)C(C)NS(=O)(=O)c2ccc(NC(C)=O)cc2)cc1` (stereo not shown), the “hERG current change (%, negative = inhibition) at 1uM” value was found to be 15.8%.

Consider `Cc1noc(-c2ccccc2OC(=O)c2ccccc2)n1`, for which the “hERG current change (%, negative = inhibition) at 1uM” value is on record as 6.26%.

Turning to `Cn1c(=O)c2c(ncn2CC(O)CO)n(C)c1=O` (stereo not shown), the “hERG current change (%, negative = inhibition) at 1uM” value is recorded as 6.11%.

(Values after article PMC4336329 (PLoS ONE, 2015).)
